± gives the standard deviation. This is a selection; strong and weak results do not stand in their true shares.
These sequences were tested on MIWI (PIWIL1) piRISC loaded with L1MC piRNA (30 nt) (assay: pre-steady-state target cleavage rate (min^-1); MIWI and MILI are mouse PIWI proteins and EfPiwi is from a freshwater sponge; tags in brackets are library labels; higher = faster piRNA-guided slicing of the target). Conditions: guide: L1MC piRNA 5'p-UAACUAAAUACUAUGCAAGCUGUAGGUCCU; auxiliary factor: none (no GTSF1).
Outline: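 A burst-and-steady-state fit was used to obtain the pre-steady-state cleavage rate. The input data were sequencing reads of uncleaved targets, normalised to depth and to weakly complementary targets, from a […] transcribed, DNA-blocked target RNA library mixed with 1 nM active affinity-purified piRISC holding one synthetic guide, with or without 500 nM GTSF1 partner protein, in HEPES–potassium acetate buffer at 33 °C for 0–8 or 0–960 min. Three trials were pooled and k3 was capped at 0.0001 min^-1.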
For AGGUCCUACAGCUUGCAAAGUAUUUAGUUA, the “pre-steady-state target cleavage rate” value was 0.0532 ± 0.01.
With AGGACCAACAGCAUGCAUAGUAUUUAGUUA the “pre-steady-state target cleavage rate” value was 0.0703 ± 0.016.
With UCCUGGAUGUCGAACGUAAGAUUUAGUUA the “pre-steady-state target cleavage rate” value was < 0.0001.
UCCUGGAUGUCGAACCAUAGUAUUCAGUUA was tested, and the “pre-steady-state target cleavage rate” value was < 0.0001.

Reference: the supplement of paper PMC10338343
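Note: 1 nM active piRISC with 0.1 nM target library at 33 °C single turnover.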
